From the supplement of paper PMC3334620
Whole data set: some 33,000 sequences, median “E-score (-0.5 to 0.5)” near -0.04, cut for the highest 2% near 0.36. This is one part of the list.

Target: T1, Hmlalpha2 (UniProt P0CY09)
T1 sequence: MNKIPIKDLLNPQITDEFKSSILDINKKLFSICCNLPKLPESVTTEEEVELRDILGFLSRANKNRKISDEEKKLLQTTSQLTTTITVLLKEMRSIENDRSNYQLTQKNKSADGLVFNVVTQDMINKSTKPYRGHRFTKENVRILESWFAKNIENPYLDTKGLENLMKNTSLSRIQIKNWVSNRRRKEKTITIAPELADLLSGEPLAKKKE
Test: PBM E-score (8-mer binding enrichment) (E-score (-0.5 to 0.5)); higher = stronger / more preferred TF binding; most listed sequences are background and not binding sites
Settings: protein concentration: 200 nM; construct: GST-full length
Method: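 Universal 'all 10-mer' protein binding microarrays (Agilent AMADID 015681) probed with GST-tagged S. cerevisiae TFs (full-length or DBD) made by in vitro transcription/translation (PURExpress), about 100-200 nM. Bound TF was detected with fluorescent anti-GST. Each ungapped 8-mer (which stands for itself and its reverse complement) is scored by the PBM enrichment score (E-score), a modified Wilcoxon-Mann-Whitney statistic from -0.5 to +0.5, computed with the Universal PBM Analysis Suite. Scale: above 0.35 generally sequence-specific binding.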

Sequence | PBM E-score
CGTTCTAG | 0.0456
ACTAGTAC | 0.103
CTACAGCA | 0.0682
CAATGACA | 0.199
GAGACCAA | -0.0901
AATTAAGA | 0.0633
GCCTTTTA | 0.0441
ACTAAAAA | 0.0631
GATCTTCA | -0.0644
CAGAAATG | 0.0916
GGGTGAGA | -0.33
CGGTTCAG | -0.355
AAGGCTTC | -0.116
CTCCCGAC | -0.243
GCGCAGAC | -0.134
CCTTTCAA | -0.0729
CCAGAAGA | -0.163
ACGCGATG | 0.252
CGACTCTA | -0.187
ATGATAGA | -0.00252
CCTACAAG | 0.0596
GAGAGATA | -0.0891
ACCAAACA | 0.278
CACCACAG | -0.0337
CCCTGACC | 0.00293

Sequence | PBM E-score
ACAGCCCC | -0.153
AGGATCAC | -0.0278
CCCTCAAG | -0.264
CTCGGTGA | -0.194
CTGACGTA | 0.0475
CCATCAGA | -0.289
ACCTCAAC | 0.0338
CAAAGAAC | 0.131
GTATAGAA | 0.0731
ATGAACGG | -0.0321
AGTGATCG | -0.0738
CTAGCGTC | -0.191
ACTGTATA | 0.0991
GAAAGGCA | -0.0479
CAACCTAA | 0.144
GGAGTGGA | -0.162
CATGAAAC | 0.0721
ATCTGTAC | 0.167
ACGGCGAA | 0.11
TACGTCCA | -0.0183
GTCGACGA | 0.0877
CCCTGGTA | -0.144
ATACCATA | 0.085
TGGACGAA | 0.0765
ACGCCCGT | 0.00563

Sequence | PBM E-score
CGTTGAGC | 0.0973
AGCTATGG | -0.305
CGACACCG | -0.127
CATTAAGG | 0.0313
AAATAACT | 0.296
CTGGTGCC | -0.0672
CGGACTTC | -0.221
TAAAATAA | 0.135
GCTCGACC | -0.0938
ACAGTAAT | 0.182
GGACAGTA | 0.0315
CTGCTTTA | 0.0867
CACCTGAA | 0.0464
CACCTATC | -0.0688
TCGGTTCA | -0.0617
CTACCGGA | -0.301
ATTCTGCG | -0.0308
GATGCTCA | -0.178
AATCTGGC | -0.053
AACGAGCG | 0.124
AAGTCGCG | 0.111
GGCCTGAA | -0.248
CAATCAAC | 0.268
ACTTGTCG | -0.125
GGAAACCA | -0.239

Sequence | PBM E-score
AAATGTAA | 0.394
AGTTTCTC | -0.0579
GAAGGACA | 0.188
ACAGCGTA | 0.096
ACTCTACG | 0.0737
AGTGACAG | -0.0463
GATCAGAA | -0.278
ATACCCCG | -0.223
AAGGGCAA | -0.207
CATTCAGC | -0.0801
CATGTCCA | 0.206
CTACCCAA | -0.134
GTCGCGCA | -0.0287
CTACAAAG | 0.156
CAGCTATG | -0.0447
CATGGACA | 0.186
AACAGGCG | -0.0316
GCGTGGCA | -0.25
CAGTGTTA | 0.212
ATAATGTA | 0.273
ACCCGACC | -0.145
GATCGACC | -0.186
CAGTCATA | -0.177
TAGGGCAA | -0.0956
CCGCTTGA | -0.111

Sequence | PBM E-score
GCCCTCCC | -0.328
AGCGATAT | 0.0863
CAAAATAC | 0.266
CCAATTGA | -0.0994
GTTATTCA | 0.296
ATGCACTA | 0.131
GACCCAAA | -0.148
GGCAAGAC | -0.237
CGCCACCC | -0.0656
TAAGTGAA | 0.0646
ATCACCTG | -0.0735
ACTCTGCA | 0.00961
CAGATCGG | -0.0892
GCGAGCCA | -0.181
CGTACAGC | 0.0305
ATTATTGG | -0.0194
CCTAGATC | -0.174
GCTAAAGC | 0.00412
ATGGACAT | 0.168
GTAGTGTA | 0.279
CCTCTTTA | -0.104
CCCGTAAG | 0.0106
ACCATTTC | -0.0551
AACCCATC | -0.0706
CAGCAACC | -0.15

Sequence | PBM E-score
TACTATAA | 0.171
CAGGCGCG | -0.102
CCGCTCCG | -0.161
ACTCGGAG | -0.158
ACCCATAT | -0.0262
GTTTACGA | 0.282
AACGATGA | -0.0827
CGAGAGCG | -0.141
AACGCTTG | 0.0808
TATCAAGA | 0.101
ACCTGATC | -0.171
ACAGAACC | -0.083
AAACCCTC | -0.0233
TGTATAAA | 0.342
GCACGGTA | -0.0709
CTGACTCC | -0.311
ACGAGAAC | 0.118
CTCTTAAC | 0.2
ACATTTAA | 0.301
ATGTACGC | 0.316
ACGATATG | 0.0821
GCCCGCAC | -0.145
ATTCCCAC | -0.125
GCAATCAC | -0.049
AATGAGGC | 0.0163

Sequence | PBM E-score
TAGGCAAA | -0.142
AAAGGCGG | -0.151
GCACTTCC | -0.245
GAACAGGC | -0.0405
CCTCCGAA | -0.251
CTGATTGA | -0.0342
GCCCGGAC | -0.23
AAACCACT | -0.0785
AATAGCGA | 0.231
ACTCGCTA | 0.0329
AATACCTG | -0.0316
AATAGGTC | 0.0472
ACCGATTA | 0.123
CGTCACAG | -0.204
ATAAGCGA | 0.102
AGTGTGAT | 0.0862
ACGCACAC | 0.224
CGGGGAGC | -0.251
CGCACGAC | 0.0246
ATTGCACA | 0.134
GAGAAGTA | -0.0622
AACCGTTC | -0.0917
